Test results: the supplement of paper PMC3334620
The full ranking holds about 33,000 sequences; the median of “E-score (-0.5 to 0.5)” is about -0.054, and the highest 2% start at about 0.39. The list shows a part of the results.

target: Ylr278c (UniProt Q05854); experiment: PBM E-score (8-mer binding enrichment) (E-score (-0.5 to 0.5)); higher = stronger / more preferred TF binding; most listed sequences are background and not binding sites; details: protein concentration: 200 nM; construct: GST-DNA-binding domain
Outline: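 The E-score, a modified Wilcoxon-Mann-Whitney statistic, was computed by the Universal PBM Analysis Suite for every ungapped eight-base word pooled with its reverse complement. Scans behind it were normalised with masliner after bound GST-tagged yeast transcription factors were detected with fluorescent anti-GST. The proteins, at about 100-200 nM, had been applied to universal all-10-mer Agilent arrays made double-stranded by primer extension.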

Sequence	PBM E-score
GCTGTGCA	-0.143
CAAAGGTG	-0.196
GGCCAGCA	0.0322
AATCCTAT	0.181
CCAGGTTC	-0.0589
CCATCAGC	-0.0147
CCCAATCC	-0.0104
GGAGACAA	0.196
CTTTCCTC	-0.15
GCGACCCA	0.0314
AGCTGTTG	-0.184
TCGAGTAA	-0.0996
ATGAGAAG	-0.236
AGGCGCCT	-0.177
ACGCGAGC	0.0976
GAGGTCCA	0.102
CAAACTGG	-0.192
ACGGGGAT	0.352
AACGAATA	-0.12
CACCCTCG	-0.00684
GCAGTAGC	-0.206
TTGGAAAA	-0.107
AGGCAATA	-0.201
CTTGGGTC	-0.171
AAGTCTGA	-0.409

Sequence	PBM E-score
CGAGGCCG	0.181
CTAGGGAC	-0.132
CAGCCATA	-0.212
GTGTCTCA	-0.152
CACAGAAC	-0.205
AGGAGAAG	-0.151
CTTGTCAA	0.0542
AATAATAT	0.23
AGCCATTC	-0.0143
AGTACGAC	-0.0403
CCACATGG	-0.18
CACGTGTA	-0.171
GACATCTA	-0.103
CGGCCCGA	0.25
CAACCCCC	-0.0384
CGAATAAG	-0.0916
CAACACGA	-0.207
CAAGTCCA	-0.118
AACGCAAG	-0.136
GTATCGTA	-0.187
ACCACGCC	-0.0137
GCCTACGA	-0.0756
TCGACCGA	0.136
AAGCAAGA	-0.16
ACCATTGA	-0.187

Sequence	PBM E-score
CTTATAGA	-0.142
TAAGTCAA	-0.285
GACAATCC	0.222
CAATTGGA	-0.178
ATGGTTTC	-0.0232
ACCGGGCG	0.121
ATGCTAGC	0.00697
AGTACTGA	-0.208
AATCAGTC	-0.0977
CAGACCGC	0.0478
ACTATCAG	-0.221
CACATTCA	-0.0945
AGATCTCG	0.012
CCAAAAAC	-0.00752
CGGTGGGA	0.124
CCCACAAC	-0.0392
ATAGGCCA	-0.061
CACTCGCA	-0.028
AAAACTCT	-0.16
ATTCACTG	-0.135
AGCGTGCA	0.0128
CTAATGGC	-0.107
CACCGGGG	0.345
GATACTGC	0.0575
AGACGTCC	-0.0515

Sequence	PBM E-score
ATCTGAAA	-0.039
CCCTGTAG	-0.0141
CGCTCGAA	-0.00193
GACAAGTA	0.113
ACAAACCG	0.156
AAACCACA	-0.0305
AGAGCTTC	-0.0549
AGGTCCTG	-0.173
ACGAAACG	-0.0505
CACTCAAC	-0.0951
GGTGGATA	-0.0278
TAGATAAA	-0.0204
GACTAACC	-0.027
GCTGCTTA	-0.0827
ACATAGTG	-0.00358
CCGTTTTA	0.22
CCAATTGG	-0.146
CTCCGCAA	0.409
AGAAGATA	0.138
CGTTTATA	0.0427
CCATTAAA	-0.0121
CACTGGCC	-0.0953
CCTCGAGG	-0.308
CTTCCGGC	0.371
CGATACTA	0.0974

Sequence	PBM E-score
AGCTTCGG	0.208
ATGATTGC	-0.0479
CACTATCG	0.104
TGATGGCA	-0.226
CATCTGAG	-0.0423
AGGGGTGC	-0.114
GATAAGCA	0.0369
ACGCAGCA	-0.159
AGGCACAC	-0.245
ACGTGACC	-0.116
GTGAGAGA	-0.175
GAATCGGC	0.33
CAAAGACC	-0.0204
CACCCATA	-0.153
GATGGACA	0.095
CCAGGTTA	-0.0329
GTTCAAAA	-0.0851
ACCCTGAG	-0.163
GACGCACA	0.146
ATAACTAG	-0.0232
CTATGATC	-0.0971
ACACCTCA	-0.225
ACCGGCTC	0.224
ACTCTCGG	0.263
TCCGAAAA	0.431

Sequence	PBM E-score
CCGTCATC	0.108
ATGATTCA	-0.149
AGATTAGA	-0.15
GAGCTGCA	0.0493
AAGTTCGT	-0.242
ATGACCTA	-0.143
CGCGCCCC	0.238
ACTAATCT	0.0155
AGGCTGGA	-0.228
CATCCGCC	0.309
ACACGATC	0.113
CTTTATAC	0.0278
ACAAGTAA	-0.22
CGCCAGAC	-0.153
CAGACTCC	0.124
GAATACCC	0.16
GCCGGAGA	0.459
CTGCGCTA	-0.088
CCATGACG	-0.0228
AGACGAGC	-0.173
GCCTCCAA	-0.134
CCGCATCG	0.232
TACGAGAA	0.00262
TCGCGAAA	0.191
TGAAATAA	-0.208

Sequence	PBM E-score
CTAAAATC	-0.0418
GCTTTTAA	0.0263
AACAGGAG	-0.137
CGCGTGAC	0.0234
GTGGTACA	-0.152
ACCGCTTG	-0.0343
CAACGGGA	0.148
CGACATCC	0.219
AAGGCAAA	-0.165
ACGTTCTA	-0.146
AGATTTCC	0.195
CTGGTCTA	-0.174
GCCGACTA	0.182
AGTAGAAT	-0.141
AGTCCGGA	0.476
AGTAGCGA	-0.17
CCAATAAA	-0.0291
GACCTGTA	-0.118
CTGGTTGA	-0.231
GGAAGCTA	-0.0188
CGGTATGC	0.107
ACGGCATG	0.0608
AGACACAG	-0.147
CACCACGA	-0.0786
CAGTATGA	-0.0866

Sequence	PBM E-score
AAAATAAT	0.0635
AAAAGAAC	-0.0704
CTCGATAA	0.0644
CCCCGTCG	0.194
AGACACAT	-0.188
GTAGCTGA	-0.217
GCACAGAC	0.105
CGAAGGTA	0.0631
ACATTTGG	0.143
ATAAAGGA	-0.182
ACCGTTCA	-0.054
ACGCAGAC	-0.204
ATGGGTGG	-0.0707
ATGTGACG	-0.238
GTGCAAGA	-0.081
ACTCACAT	-0.32
ATTATTCC	0.31
GCCCGCCC	0.303
GTTAACCA	-0.016
CACAGTAA	-0.0657
GAAAGTGC	0.0664
CTTTAAGA	0.151
GAGCGACA	-0.157
GCTGAGCA	-0.27
CGGAAGAG	0.221

Sequence	PBM E-score
GGATATGA	0.0976
ACAAACTC	0.155
AAAAATAC	0.0659
ACCTACGG	0.0706
CTCTCGAA	-0.33
GTGAACTA	-0.197
AAGTCGGA	0.328
AATCAGAT	-0.145
TGCCGCCA	0.117
GAAGGAAC	-0.0822
CGTATACG	0.234
AACTAGAC	-0.0709
AGCTCGAG	-0.0847
GAATTTCC	0.339
ATCAGGCC	-0.0624
GAGCGCAC	0.154
GTCATATA	-0.0339
CAGAGGCG	-0.164
AAGTGAAT	0.0432
